Test results taken from publication PMC5700166.
The list shows a part of the results, in another mix than the full data. The list includes weakly bound sequences.

Assays:
Assay in all cases: protein-binding microarray (PBM)
Conditions in all cases: PBM: ~300 nM protein, 6 mM HEPES pH 7.8, 80 mM KCl, 0.5 mM EDTA, 0.5 mM EGTA, 6% glycerol, 35 ng/ul poly-dIdC, 1% milk, 1 h, room temperature; Ap Aiptasia and Nv Nematostella (sea anemones) / Co Capsaspora / Aq Amphimedon (sponge) / Dm Drosophila / Hu human; RHD is the Rel homology domain; high values mean tight binding; most listed sequences are background and not binding sites; double strand, one strand shown
GST-Ap-NF-kB RHD = biological target: T1, GST-Ap-NF-kB RHD (UniProt A0A913YAJ5)
T1 sequence: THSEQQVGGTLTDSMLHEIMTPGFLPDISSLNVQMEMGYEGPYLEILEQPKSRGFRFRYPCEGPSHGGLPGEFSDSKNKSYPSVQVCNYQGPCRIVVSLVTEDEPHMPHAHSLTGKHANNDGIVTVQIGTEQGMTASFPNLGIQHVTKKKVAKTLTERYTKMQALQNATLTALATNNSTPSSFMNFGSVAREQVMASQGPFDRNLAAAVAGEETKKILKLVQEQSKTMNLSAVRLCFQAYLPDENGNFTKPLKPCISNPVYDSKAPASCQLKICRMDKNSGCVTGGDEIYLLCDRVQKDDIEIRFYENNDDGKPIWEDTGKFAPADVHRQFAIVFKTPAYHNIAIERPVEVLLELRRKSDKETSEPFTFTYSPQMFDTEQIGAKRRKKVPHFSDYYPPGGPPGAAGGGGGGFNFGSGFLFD

[1] = biological target: T2, GST-Nv-NF-kB (Cys allele) (UniProt E5G601)
T2 sequence: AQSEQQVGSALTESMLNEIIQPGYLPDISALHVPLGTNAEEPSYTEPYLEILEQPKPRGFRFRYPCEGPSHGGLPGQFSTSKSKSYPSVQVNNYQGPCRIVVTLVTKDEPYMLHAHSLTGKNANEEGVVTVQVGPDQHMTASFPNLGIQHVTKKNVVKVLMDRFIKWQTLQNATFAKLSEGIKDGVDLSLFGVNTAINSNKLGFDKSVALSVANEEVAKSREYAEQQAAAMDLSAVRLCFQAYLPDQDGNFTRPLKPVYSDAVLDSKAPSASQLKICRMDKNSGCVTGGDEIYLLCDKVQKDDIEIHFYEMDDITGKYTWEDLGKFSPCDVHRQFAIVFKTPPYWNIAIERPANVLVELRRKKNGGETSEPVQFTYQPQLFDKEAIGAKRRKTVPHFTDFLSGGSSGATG

GST-Co-NF-kB = biological target: T3, GST-Co-NF-kB (UniProt F1ARL5)
T3 sequence: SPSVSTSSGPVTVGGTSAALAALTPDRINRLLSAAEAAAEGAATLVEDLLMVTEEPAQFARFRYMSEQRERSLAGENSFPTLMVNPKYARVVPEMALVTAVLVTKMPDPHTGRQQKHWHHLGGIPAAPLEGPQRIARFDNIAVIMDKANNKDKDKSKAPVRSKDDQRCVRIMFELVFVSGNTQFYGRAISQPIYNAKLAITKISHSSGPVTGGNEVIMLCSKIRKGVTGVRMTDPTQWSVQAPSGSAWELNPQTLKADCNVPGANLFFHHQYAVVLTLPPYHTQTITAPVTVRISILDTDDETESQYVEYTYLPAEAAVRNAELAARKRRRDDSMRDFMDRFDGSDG

Sequence	binding signal (GST-Ap-NF-kB RHD) [z-score]	binding signal [1] [z-score]	binding signal (GST-Co-NF-kB) [z-score]
CCGATTAACATCACGTAAATTCCTGATGTTAATCGGGTCTTGATTCGCTTGACGCTGCTG	-0.0527	-0.39	0.6
CCGATTAACATCAAGGGGGGAATTGATGTTAATCGGGTCTTGATTCGCTTGACGCTGCTG	7.34	7.02	7.24
CCGATTAACATCAAAATTTCCGGTGATGTTAATCGGGTCTTGATTCGCTTGACGCTGCTG	0.618	0.396	0.503
CCGATTAACATCAGACATCCCCCTGATGTTAATCGGGTCTTGATTCGCTTGACGCTGCTG	5.54	5.65	3.71
CCGATTAACATCACGGGGGGAAATGATGTTAATCGGGTCTTGATTCGCTTGACGCTGCTG	6.31	6.61	11.2
CCGATTAACATCAATAAAACCCCTGATGTTAATCGGGTCTTGATTCGCTTGACGCTGCTG	5.73	5.27	2.26
CCGATTAACATCAAAAAATGCCCTGATGTTAATCGGGTCTTGATTCGCTTGACGCTGCTG	2.08	3.03	1
CCGATTAACATCAGGAATTCCGATGATGTTAATCGGGTCTTGATTCGCTTGACGCTGCTG	0.374	-0.093	-0.559
CCGATTAACATCAATAAATTTCCTGATGTTAATCGGGTCTTGATTCGCTTGACGCTGCTG	0.399	0.567	0.477
CCGATTAACATCAGGGATCGCCCTGATGTTAATCGGGTCTTGATTCGCTTGACGCTGCTG	0.998	1.19	-0.183
CCGATTAACATCAGAATTTCCCATGATGTTAATCGGGTCTTGATTCGCTTGACGCTGCTG	3.88	5.46	4.63
CCGATTAACATCAGGTATTTTACTGATGTTAATCGGGTCTTGATTCGCTTGACGCTGCTG	0.529	0.961	0.667
CCGATTAACATCAGGGCATCCCATGATGTTAATCGGGTCTTGATTCGCTTGACGCTGCTG	1.37	0.625	0.215
CCGATTAACATCACGGGCATCCCTGATGTTAATCGGGTCTTGATTCGCTTGACGCTGCTG	0.855	0.511	0.627
CCGATTAACATCACGGTTTTTCCTGATGTTAATCGGGTCTTGATTCGCTTGACGCTGCTG	0.469	0.599	-0.0134
CCGATTAACATCATGGGGGAAAATGATGTTAATCGGGTCTTGATTCGCTTGACGCTGCTG	5.67	6.78	10.9
CCGATTAACATCAAAAAACTTCCTGATGTTAATCGGGTCTTGATTCGCTTGACGCTGCTG	0.172	-0.0606	0.382
CCGATTAACATCAGGAAACCCACTGATGTTAATCGGGTCTTGATTCGCTTGACGCTGCTG	0.87	0.263	0.256
CCGATTAACATCAATGGAATTCCTGATGTTAATCGGGTCTTGATTCGCTTGACGCTGCTG	0.0412	0.509	0.358
CCGATTAACATCAAAATCCCCCATGATGTTAATCGGGTCTTGATTCGCTTGACGCTGCTG	9.1	9.28	6.67
CCGATTAACATCAGGAAATTTTATGATGTTAATCGGGTCTTGATTCGCTTGACGCTGCTG	0.302	0.0371	0.3
CCGATTAACATCAAAAATTCCGGTGATGTTAATCGGGTCTTGATTCGCTTGACGCTGCTG	0.678	0.579	-0.207
CCGATTAACATCAAGGAAACTCCTGATGTTAATCGGGTCTTGATTCGCTTGACGCTGCTG	0.0313	-0.615	-0.0805
CCGATTAACATCAACGGAAATCCTGATGTTAATCGGGTCTTGATTCGCTTGACGCTGCTG	0.114	0.316	0.437
CCGATTAACATCAAATTCCCCCCTGATGTTAATCGGGTCTTGATTCGCTTGACGCTGCTG	8.5	8.77	10.1
CCGATTAACATCAGGAAGTACCCTGATGTTAATCGGGTCTTGATTCGCTTGACGCTGCTG	3.65	3.73	0.703

Sequence	binding signal (GST-Ap-NF-kB RHD) [z-score]	binding signal [1] [z-score]	binding signal (GST-Co-NF-kB) [z-score]
CCGATTAACATCAAGGATTCCCCTGATGTTAATCGGGTCTTGATTCGCTTGACGCTGCTG	9.7	10.5	6.56
CCGATTAACATCAGGAACATCCCTGATGTTAATCGGGTCTTGATTCGCTTGACGCTGCTG	1.46	1.39	0.592
CCGATTAACATCAGGATTTTTTATGATGTTAATCGGGTCTTGATTCGCTTGACGCTGCTG	0.539	-0.459	-0.0669
CCGATTAACATCAGGAAAAATCCTGATGTTAATCGGGTCTTGATTCGCTTGACGCTGCTG	-0.886	-0.17	-0.108
CCGATTAACATCAGAAATTTTCCTGATGTTAATCGGGTCTTGATTCGCTTGACGCTGCTG	0.0756	0.764	0.178
CCGATTAACATCAGGGGAAAATATGATGTTAATCGGGTCTTGATTCGCTTGACGCTGCTG	6.98	8.57	10.2
CCGATTAACATCAAAAATTTCCGTGATGTTAATCGGGTCTTGATTCGCTTGACGCTGCTG	0.279	0.366	0.879
CCGATTAACATCAAGGAAATTCCTGATGTTAATCGGGTCTTGATTCGCTTGACGCTGCTG	0.575	0.47	0.829
CCGATTAACATCAGGAATTTTTATGATGTTAATCGGGTCTTGATTCGCTTGACGCTGCTG	0.0982	0.425	0.346
CCGATTAACATCAAAACTTCCCCTGATGTTAATCGGGTCTTGATTCGCTTGACGCTGCTG	8.71	10.4	9.44
CCGATTAACATCAGGAATTCCACTGATGTTAATCGGGTCTTGATTCGCTTGACGCTGCTG	0.513	0.524	-0.0139
CCGATTAACATCAAAAAGCCCCTTGATGTTAATCGGGTCTTGATTCGCTTGACGCTGCTG	7.33	9.57	0.314
CCGATTAACATCAGGGGGGGACATGATGTTAATCGGGTCTTGATTCGCTTGACGCTGCTG	5.67	5.09	7.08
CCGATTAACATCAGAAACTCCCATGATGTTAATCGGGTCTTGATTCGCTTGACGCTGCTG	3.34	3.45	0.84
CCGATTAACATCAAAATTTCCACTGATGTTAATCGGGTCTTGATTCGCTTGACGCTGCTG	-0.0148	0.333	-0.291
CCGATTAACATCACGGAAATTCCTGATGTTAATCGGGTCTTGATTCGCTTGACGCTGCTG	0.646	0.462	0.686
CCGATTAACATCAAGGAATGCCCTGATGTTAATCGGGTCTTGATTCGCTTGACGCTGCTG	1.68	0.894	-0.191
CCGATTAACATCAGGAAAGACCATGATGTTAATCGGGTCTTGATTCGCTTGACGCTGCTG	-0.255	0.239	-0.293
CCGATTAACATCAGGAAATTACATGATGTTAATCGGGTCTTGATTCGCTTGACGCTGCTG	0.0399	0.331	0.0412
CCGATTAACATCAAAAAAATTTCTGATGTTAATCGGGTCTTGATTCGCTTGACGCTGCTG	-0.138	0.382	-0.38
CCGATTAACATCACGGAATTTTATGATGTTAATCGGGTCTTGATTCGCTTGACGCTGCTG	0.554	-0.0517	0.215
CCGATTAACATCAAAAAATTCCATGATGTTAATCGGGTCTTGATTCGCTTGACGCTGCTG	0.373	0.184	-0.144
CCGATTAACATCAGATTTTCCCCTGATGTTAATCGGGTCTTGATTCGCTTGACGCTGCTG	8	8.78	9.39
CCGATTAACATCAAAGAAATTCCTGATGTTAATCGGGTCTTGATTCGCTTGACGCTGCTG	0.495	0.624	0.184
CCGATTAACATCAAGGAAATACCTGATGTTAATCGGGTCTTGATTCGCTTGACGCTGCTG	1.2	0.957	0.431
